According to the supplement of paper PMC10126150:
Values marked as one replicate rest on one cluster of the flow cell; about a third of the high ones do not repeat.

system: ATP; test: switch fluorescence ratio, 500 uM ATP over buffer (Cy3 cluster intensity, sum of 5 cycles each) (fold (ratio)); higher = stronger signal-on switching upon ATP binding; sequences stand for … in TCGTCGGCAGCGTCAGATGTGTATAAGAGACAGTTTTTTTTTTTTTTTTTTTTTTTTT…TC; conditions: aptamer strand: ATP DNA aptamer (quencher-CACCTGGGGGAGTATTGCGGAGGAAGG + anchor), 100 nM annealed; ATP concentration: 500 uM; one replicate
Outline: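 Cy3-labelled switching-strand clusters on a modified Illumina MiSeq flow-cell were annealed to 100 nM quencher-labelled ATP aptamer, imaged in selection buffer, then imaged after 15 min with 500 uM ATP at 22 °C. Five buffer/ATP cycles ran, with NaOH stripping and re-annealing between them. The fluorescence ratio is summed target-cycle over summed buffer-cycle Cy3 intensity per cluster, averaged per switch-domain sequence. Clusters outside 100-1000 RFU were excluded.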
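Note: ATP exposure 15 min at 22 °C before imaging.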

| Sequence | switch fluorescence ratio |
| --- | --- |
| GTCGGCGGGC | 1.01 |
| GTCGGGCCGA | 0.989 |
| GTCGGGGAAT | 1.02 |
| GTCGGGGAGT | 0.97 |
| GTCGGTCCTA | 1.01 |
| GTCGTAAGAA | 1 |
| GTCGTACAAG | 0.98 |
| GTCGTACTAT | 0.987 |
| GTCGTAGCTC | 1.11 |
| GTCGTAGGAG | 0.989 |
| GTCGTCGTCT | 0.985 |
| GTCGTTCGAC | 0.97 |
| GTCTAAAGAC | 0.971 |
| GTCTAAAGCC | 1.04 |
| GTCTAAGCCG | 0.997 |
| GTCTAATGCA | 0.992 |
| GTCTACCA | 1.06 |
| GTCTACGTAC | 1.56 |
| GTCTCAATCA | 1.03 |
| GTCTCTAAAC | 0.957 |
| GTCTCTGGTA | 0.999 |
| GTCTGAGAGC | 1.07 |
| GTCTGAGTAG | 1.03 |
| GTCTGATGAA | 0.94 |
| GTCTGGGTAT | 0.968 |

| Sequence | switch fluorescence ratio |
| --- | --- |
| GTCTGTGATG | 0.998 |
| GTCTTAATT | 1.02 |
| GTCTTCCGAT | 1.17 |
| GTCTTCGGGC | 1.02 |
| GTCTTCGTTT | 0.969 |
| GTCTTTAGAT | 1.03 |
| GTCTTTCATA | 0.975 |
| GTCTTTCGTA | 0.99 |
| GTGAACACTA | 0.99 |
| GTGAACGCTT | 1.12 |
| GTGAAGGCGT | 1.03 |
| GTGAAGGTTA | 0.998 |
| GTGAAGTCGG | 1 |
| GTGAATATAT | 0.975 |
| GTGACCCGAG | 0.994 |
| GTGACGCCGG | 0.967 |
| GTGACGGTGT | 1.04 |
| GTGAGCACAA | 1.08 |
| GTGAGCAGG | 1.02 |
| GTGAGGCAGG | 0.983 |
| GTGAGTGGGA | 1.04 |
| GTGAGTTGTG | 1.01 |
| GTGATATCAG | 1.01 |
| GTGATATTCG | 0.925 |
| GTGATCGCC | 0.996 |

| Sequence | switch fluorescence ratio |
| --- | --- |
| GTGATCGTCT | 1 |
| GTGATCTCA | 0.993 |
| GTGATCTGAA | 0.949 |
| GTGATGCCTG | 1.05 |
| GTGATGTAGC | 1.05 |
| GTGATTAGAT | 0.971 |
| GTGATTATTT | 1.02 |
| GTGATTCAAC | 0.965 |
| GTGATTCACG | 0.988 |
| GTGCACCTCC | 1.14 |
| GTGCACGCTT | 0.984 |
| GTGCACGGA | 1.48 |
| GTGCACTCGG | 1.03 |
| GTGCAGAAGT | 0.977 |
| GTGCAGTGAG | 0.997 |
| GTGCATACCA | 0.962 |
| GTGCATTAAC | 1.28 |
| GTGCGAAAGT | 1.02 |
| GTGCGCGCTG | 1.02 |
| GTGCGGATTA | 0.972 |
| GTGCGGGTGG | 1.03 |
| GTGCGTTGAC | 1.05 |
| GTGCTAAACG | 0.978 |
| GTGCTAGGAC | 1.04 |
| GTGCTATTAA | 1.02 |

| Sequence | switch fluorescence ratio |
| --- | --- |
| GTGCTCGGGG | 1.05 |
| GTGCTTCCCA | 0.991 |
| GTGGAAAGTG | 0.992 |
| GTGGAACCTA | 0.979 |
| GTGGAATGCA | 0.98 |
| GTGGACCGGG | 1.01 |
| GTGGACCGGT | 0.973 |
| GTGGAGAACC | 1.01 |
| GTGGAGCTCG | 0.987 |
| GTGGAGGGAA | 1.01 |
| GTGGAGGGTC | 1.03 |
| GTGGATAGGG | 1.03 |
| GTGGCAACCC | 0.98 |
| GTGGCAATCG | 1.04 |
| GTGGCATCGC | 1.01 |
| GTGGCGATCT | 1 |
| GTGGCGTTTC | 1.01 |
| GTGGGACCGG | 0.999 |
| GTGGGATGAA | 0.93 |
| GTGGGATTTA | 0.939 |
| GTGGGCGGTA | 1.04 |
| GTGGGGGATC | 0.956 |
| GTGGGGGGG | 0.963 |
| GTGGGGTACG | 0.979 |
| GTGGGGTGGC | 0.952 |

| Sequence | switch fluorescence ratio |
| --- | --- |
| GTGGGTACTC | 1.14 |
| GTGGGTCTTA | 1.01 |
| GTGGTCAGTT | 1.03 |
| GTGGTCCCGA | 1.06 |
| GTGGTCCCTT | 0.981 |
| GTGGTCGACA | 1.04 |
| GTGGTCTTG | 0.99 |
| GTGGTCTTTA | 0.966 |
| GTGGTTACTC | 0.986 |
| GTGGTTCACT | 0.991 |
| GTGGTTCGGC | 0.951 |
| GTGGTTGCCT | 1.02 |
| GTGGTTGGCG | 1.02 |
| GTGGTTTCGA | 0.988 |
| GTGGTTTCGT | 0.991 |
| GTGGTTTTT | 0.985 |
| GTGTAAGCGA | 1.01 |
| GTGTAAGGTC | 1.02 |
| GTGTAATAGC | 0.962 |
| GTGTACGGGA | 1.05 |
| GTGTAGATAT | 0.994 |
| GTGTATAATG | 1.01 |
| GTGTCACGCA | 1.01 |
| GTGTCAGTAG | 1.01 |
| GTGTCATGTT | 0.975 |

| Sequence | switch fluorescence ratio |
| --- | --- |
| GTGTCCGGCC | 0.934 |
| GTGTCGAGCT | 0.977 |
| GTGTCGTAGG | 1.02 |
| GTGTGAAGCG | 1.02 |
| GTGTGACAAT | 0.997 |
| GTGTGATAG | 0.985 |
| GTGTGATGGA | 1.05 |
| GTGTGCTTCC | 1.66 |
| GTGTGCTTCT | 0.981 |
| GTGTGGAATG | 0.959 |
| GTGTGGACAC | 0.966 |
| GTGTGGGGTA | 0.992 |
| GTGTGTAAAA | 0.987 |
| GTGTGTCCCG | 0.953 |
| GTGTGTCTCA | 0.999 |
| GTGTGTGTAC | 1.03 |
| GTGTTAAATT | 1.04 |
| GTGTTAAGAA | 1.02 |
| GTGTTAATCG | 1 |
| GTGTTAGTTG | 1.01 |
| GTGTTATATG | 1.02 |
| GTGTTATTCC | 0.994 |
| GTGTTCAAAC | 1.03 |
| GTGTTCCGCG | 1.02 |
| GTGTTCCGGT | 0.985 |

| Sequence | switch fluorescence ratio |
| --- | --- |
| GTGTTCCTCA | 1.02 |
| GTGTTGGACA | 1.03 |
| GTGTTGGCG | 1.01 |
| GTGTTGGGCG | 1.01 |
| GTGTTTATGT | 0.998 |
| GTGTTTGACC | 0.977 |
| GTTAAATACC | 1.02 |
| GTTAAATTGT | 1.06 |
| GTTAAATTTG | 0.979 |
| GTTAACCCCC | 2.5 |
| GTTAAGAAAT | 0.984 |
| GTTAAGTACT | 1.33 |
| GTTAAGTCGG | 1.03 |
| GTTAATGACC | 1.02 |
| GTTACAGATT | 1.03 |
| GTTACGCAGT | 1.07 |
| GTTACTAGTC | 0.952 |
| GTTAGAACCA | 0.968 |
| GTTAGCCCTG | 1.03 |
| GTTAGGGGAC | 0.978 |
| GTTAGGGTGG | 0.984 |
| GTTAGTCGGG | 0.957 |
| GTTATAGGTC | 1.01 |
| GTTATCGCGG | 0.97 |
| GTTATGATCC | 0.973 |

| Sequence | switch fluorescence ratio |
| --- | --- |
| GTTATGTAAA | 0.969 |
| GTTATTAATA | 0.996 |
| GTTATTCCTG | 1.04 |
| GTTATTTAA | 0.997 |
| GTTATTTGAG | 0.968 |
| GTTCACAACC | 0.971 |
| GTTCACAATG | 1 |
| GTTCACTTAT | 1.01 |
| GTTCAGATGT | 1.05 |
| GTTCATCTC | 0.994 |
| GTTCCAACAA | 1.03 |
| GTTCCAGATA | 1.02 |
| GTTCCGCCCT | 1.23 |
| GTTCGCCGCG | 0.965 |
| GTTCGCTGGA | 1 |
| GTTCGGCGGA | 0.961 |
| GTTCGGGTAA | 0.99 |
| GTTCGTACC | 1.06 |
| GTTCGTTGAG | 1 |
| GTTCTAAGCC | 0.984 |
| GTTCTCGATC | 1.04 |
| GTTCTCGTGG | 1.01 |
| GTTCTCTGTA | 1.02 |
| GTTCTGACGA | 1.14 |
| GTTCTGCTAA | 1.02 |
